# Laboratory results published in PubChem BioAssay AID1347417 (National Center for Advancing Translational Sciences (NCATS), 2020).
# Hit rate of the full screen: of about 120,000 compounds, about 5,300 (4.4%) were called active. The shares of active, inactive and inconclusive entries below differ from those in the screen. Calls follow the shape of the dose curve; as a rule, active = well fitted inhibition curve with a large enough effect; inconclusive = small, poorly fitted or top-dose-only effect; inactive = no such curve, though single readings can be large or run the other way. Where the call is inconclusive, the potency comes from a doubtful curve fit.
# Assay: qHTS Primary assay for Inhibitors of Plasmodium falciparum Dd2 growth in vitro; also: nearly all actives have a fitted effect of over 65% in size;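 as to activity, negative = inhibition: plate controls were DMSO vehicle for no effect and reference drug for full effect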
# Conditions: P. falciparum Dd2 growth, SYBR Green, 72 h; activity, negative = inhibition: at 28.9 µM (top of the series) unless noted; series mostly up to 28.9 µM
# How it was run: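 Infected erythrocytes (Dd2, 0.3% parasitemia, 2.5% hematocrit final) are added to compound in RPMI-1640/Albumax II medium, grown 72 h at 37C in low oxygen, then lysed with saponin/Triton-X containing SYBR Green and read by fluorescence.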
# Potency is read from the fitted curve at half-maximal effect; tags tell the direction and shape of the fitted curve.
Compound,Potency,"activity, negative = inhibition",outcome
CCOC(=O)C1(Cc2cccc(Cl)c2)CCCNC1 (stereo not drawn),"inconclusive: 0.708 µM [inhibitor, full curve]",,
O=C(Nc1ccccc1F)N1CCC(N2C(=O)C3(CCCCC3)C2c2ccncc2)CC1 (stereo not drawn),active: 4.47 µM,,
CCc1cccc(NC(=O)Nc2cn(C)c(=O)c3ccccc23)c1,,inactive: 23.2%,
COCc1noc([C@@H]2CN(S(=O)(=O)c3c(C)noc3C)C[C@H]2C(N)=O)n1,,inactive: 0.823%,
C=CCN1CCN(C(=O)CCC[C@@H]2[C@H]3CCCN4CCC[C@@H](CN2Cc2cccnc2)[C@@H]34)CC1,"inconclusive: 3.98 µM [inhibitor, partial curve, poor fit]",,
Cc1ccc(S(=O)(=O)c2cn(CC(=O)Nc3ccc(F)cc3)c3cc4c(cc3c2=O)OCO4)cc1,"inconclusive: 20 µM [inhibitor, single point]",,
COCC(=O)NC[C@H]1CCN(Cc2ccc(Cl)cc2)C[C@H]1N(C)C,"inconclusive: 0.0708 µM [inhibitor, full curve, poor fit]",,
Cc1ccc2c(c1)N1C(=O)OC[C@@H]1CCN(C(=O)COCc1ccccc1)C2,,inactive: 0.26% [at 44.1 µM],
CCOC(=O)CC(NC(=O)c1cc2c(=O)n3cccc(C)c3nc2s1)c1ccc(OCC)c(OC)c1 (stereo not drawn),"inconclusive: 17.8 µM [inhibitor, single point]",,
O=C1N[C@@H]2CCN(C(=O)c3ccccc3)[C@@H]2C(=O)N1c1ccc(Oc2ccccc2)cc1,"inconclusive: 17.8 µM [inhibitor, single point]",,
COc1ccccc1Nc1cnc2ccc(-c3ccc(OC)c(OC)c3)nn12,active: 1.12 µM,,
CCc1noc(-c2cccn3c(CNC(=O)c4ccccc4C)nnc23)n1,,inactive: -27.6%,
CCc1ccccc1NC(=O)Cn1c(=O)n(-c2cccc(C)c2)c(=O)c2c1c1cc(OC)ccc1n2C,"inconclusive: 1 µM [inhibitor, single point]",,
CCOc1ccccc1N(C)C(=O)c1cc2c(s1)-c1ccccc1OC2,"inconclusive: 10 µM [inhibitor, partial curve, poor fit]",,
CN1CCN(Cc2c(O)ccc3cc(-c4ccc(Cl)cc4)c(=O)oc23)CC1,active: 5.01 µM,,
COc1cncc(Nc2ncc(-c3c(C)noc3C)c3c2OCC3)c1,"inconclusive: 1.41 µM [inhibitor, full curve]",,
CCN(CC)c1ccc(NC(=O)CCn2ccn3nc4c(c3c2=O)CCCC4)c(C)c1,"inconclusive: 11.2 µM [inhibitor, single point]",,
COC(=O)C1=C(C)N=C2SC=C(CC(=O)N3CCCC3)N2C1c1cccc(OC)c1 (stereo not drawn),"inconclusive: 0.501 µM [inhibitor, full curve, poor fit]",,
Cc1ccc(CNC(=O)c2noc(-c3ccc(C)cc3)n2)cc1,,inactive: 56.2%,
O=C1NCCCCCCN(C(=O)c2ccsc2)[C@H]2CCC[C@@H]12,,inactive: 18.6%,
COc1ccccc1C(=O)NCC1COc2ncncc2C(=O)N1Cc1ccccc1 (stereo not drawn),"inconclusive: 15.8 µM [inhibitor, single point]",,
COC(=O)c1sc2c(c1C)c(=O)n(-c1ccccc1)c(=O)n2CC(=O)Nc1cccc(C)c1,active: 11.2 µM,,
CC(C)NC(=O)c1ccc2c(c1)N(Cc1cccc(Cl)c1)C(=O)c1ccccc1S2=O (stereo not drawn),,inactive: 23.2%,

Compound,Potency,"activity, negative = inhibition",outcome
Cc1ccc(-c2ccc3nnc(CNC(=O)c4cccc(N(C)C)c4)n3n2)cc1,,,inactive
Cc1cc(-c2nc(C3CCOCC3)nn2Cc2ccccc2C)c(C)o1,"inconclusive: 17.8 µM [inhibitor, single point]",,
O=S(=O)(c1cc(F)ccc1F)N1CCCC1c1nncn1Cc1ccncc1 (stereo not drawn),,inactive: -3.77%,
Cc1cn2nc(C(=O)N3CCOCC3)cc2c(N(C)Cc2ccccc2)n1,"inconclusive: 2.24 µM [inhibitor, single point]",,
Cc1ccc(-n2nc(-c3c(C)nc4scc(CC(=O)NCc5ccco5)n4c3=O)cc2C)cc1,"inconclusive: 1.26 µM [inhibitor, partial curve]",,
Cc1ccc2nc(-c3ccc(F)cc3)c(NC(C)(C)CC(C)(C)C)n2c1,"inconclusive: 17.8 µM [inhibitor, single point]",,
COC(=O)[C@@H]1Cc2ncn(Cc3ccc(Cl)cc3)c2CN1S(=O)(=O)c1cccc2c(N(C)C)cccc12,"inconclusive: 10 µM [inhibitor, partial curve, poor fit]",,
Cc1c(Cl)cccc1NC(=O)CSc1ccc(-c2ccccn2)nn1,"inconclusive: 17.8 µM [inhibitor, single point]",,
COc1ccc2cc1Nc1ccc(cc1)C[C@H](NCC1CC1)C(=O)N(C)[C@@H](C(=O)NCc1ccccc1)C2,,inactive: -25.4%,
Cn1nc(NC(=O)C2CCS(=O)(=O)C2)c2c(Oc3cccnc3)cccc21 (stereo not drawn),,inactive: -13.9%,
CN1CCN(CCNC(=O)c2ccc(-c3ccc(N4CCCCCC4)nc3)cc2)CC1,"inconclusive: 7.94 µM [inhibitor, partial curve]",,
O=C(Cc1cccs1)NC1CCc2nnc(C3CC3)n2CC1 (stereo not drawn),,,inactive
COc1ccccc1N1CCN(C(CNC(=O)C(=O)NCc2cccnc2)c2cccnc2)CC1 (stereo not drawn),,inactive: -4.45%,
CCOc1cccc(CC(=O)N2CCc3c([nH]c4ccc(OC)cc34)C2c2ccc(F)cc2)c1OCC (stereo not drawn),"inconclusive: 8.91 µM [inhibitor, partial curve, poor fit]",,
Cc1ccn2c(Nc3ccc4c(c3)OCCO4)c(-c3ccccc3O)nc2c1,active: 11.2 µM,,
Cc1cc(C(F)(F)F)nn1CC(=O)N1C[C@@H](Oc2cccnc2)C[C@H]1C(=O)NC1CC1,,inactive: 6.45%,
CN1CCOc2c(C(=O)NCCC(N)=O)cc(-c3ccccc3O)cc21,,inactive: -11.9% [at 44.1 µM],
O=C(N[C@@H]1CN[C@H](CO)C1)c1ccncc1,,inactive: 21.8%,
COc1ccc(CCNC(=O)c2ccc3c(c2)N(Cc2ccccc2)CCS3)cc1OC,"inconclusive: 2.82 µM [inhibitor, partial curve, poor fit]",,
O=c1[nH]c(C2CCCN(Cc3ccc(F)cc3)C2)nn1-c1ccccc1 (stereo not drawn),"inconclusive: 20 µM [inhibitor, single point]",,
COc1ccc(-c2noc(-c3cccn3CC(=O)Nc3ccc(F)cc3)n2)cc1F,active: 3.16 µM,,
CC1=C[C@@H](CN2CCOCC2)[C@H](C(C)C)C[C@H]1Cc1nnc(-c2ccccc2F)o1,"inconclusive: 1.58 µM [inhibitor, partial curve, poor fit]",,
COc1ccc(C(=O)NC[C@@H]2C=C(C)[C@H](Cc3nnc(-c4ccncc4)o3)C[C@H]2C(C)C)cc1,active: 3.55 µM,,

Compound,Potency,"activity, negative = inhibition",outcome
Cn1cc(CN2CCOC[C@H](O)C2)c2ccccc21,"inconclusive: 3.98 µM [inhibitor, partial curve]",,
CC(C)CCN1CCC2(Cc3ccccc3CNC2=O)C1 (stereo not drawn),"inconclusive: 12.6 µM [inhibitor, single point]",,
Cc1ccc(-c2ccc3nnc(CNC(=O)c4nccc5ccccc45)n3n2)cc1,"inconclusive: 8.91 µM [inhibitor, single point]",,
Cc1ccc(C(C(=O)NCc2cc(=O)[nH]cn2)N(C)C)cc1 (stereo not drawn),,inactive: -9.41%,
C[S+](=O)([O-])c1cccc(CN2CC(COc3ccccc3)C3(C2)CN(c2ccccc2)C3)c1 (stereo not drawn),"inconclusive: 3.98 µM [inhibitor, partial curve]",,
COc1ccc(OCc2nc(C)c(CCO)c(=O)n2CC(=O)Nc2cccc(OC)c2)cc1,,inactive: -22%,
CCn1cc(-c2ccc(C)cc2)cc1C(=O)NCCN1CCOCC1,,,inactive
CC1=C[C@@H](CNCc2ccncc2)[C@H](C(C)C)C[C@H]1Cc1nnc(-c2ccc(N(C)C)cc2)o1,"inconclusive: 3.55 µM [inhibitor, partial curve, poor fit]",,
Cc1cccc(N2CCN(C(=O)C3c4ccccc4CC(=O)N3C)CC2)c1C (stereo not drawn),"inconclusive: 20 µM [inhibitor, single point]",,
COc1ccccc1N1CCN(C(=O)C[C@@H]2O[C@H](CNS(=O)(=O)c3ccccc3)[C@@H](O)[C@H]2O)CC1,,inactive: 46.3%,
CN1C(=O)CC[C@]2(C(=O)NCc3cccc(F)c3)CCCC[C@@H]12,,inactive: -11.8%,
COc1cccc(CC(=O)N[C@@H](Cc2ccccc2)C(=O)N2CCCOCCNC(=O)CC2)c1,,,inactive
COCC1CN(C(=O)Cn2c(=O)oc3ccccc32)CC12CCNCC2 (stereo not drawn),,,inactive
Cc1cccc(NC(=O)CN2C(=O)C(c3ccc(F)cc3)=NC23CCCCCC3)c1,"inconclusive: 15.8 µM [inhibitor, single point]",,
CCOc1ccc(-c2cc3c(=O)n(CCNC(=O)c4ccccc4)ccn3n2)cc1,"inconclusive: 0.251 µM [inhibitor, full curve]",,
COc1cccc(-n2c(SCc3ccc(F)cc3)nc3c([nH]c4ccccc43)c2=O)c1,"inconclusive: 17.8 µM [inhibitor, single point]",,
C=C[C@H]1CN2CC[C@H]1C[C@@H]2CNC(=O)Nc1cccc(C(F)(F)F)c1,"inconclusive: 8.91 µM [inhibitor, partial curve, poor fit]",,
Cc1ccc(NC(=O)N2C[C@H](c3nc(-c4ccncc4)no3)[C@@H](C)C2)cc1C,,,inactive
Cc1ccccc1C1CCCN(C(=O)c2cnc(-c3cccnc3)nc2)C1 (stereo not drawn),"inconclusive: 5.62 µM [inhibitor, partial curve, poor fit]",,
COc1cc2c(cc1OCc1ccccc1)NC(=O)C21CCN(Cc2nccn2C)CC1,,inconclusive: -38.5% [inhibitor] [at 44.1 µM],
CCOc1ccc(NC(=O)c2cc(C)nc3c2c(C)nn3-c2ccc(C)cc2)cc1,,inactive: 23.6%,
COc1cccc(C(=O)N2CCC(N(C)C3CCOCC3)CC2)c1,"inconclusive: 2.24 µM [inhibitor, partial curve]",,
